Data on 4 molecules can be found in patent publication US11366114B2, “Genetically encoded fluorescent sensors for detecting ligand bias and intracellular signaling through cAMP pathways” (MONTANA MOLECULAR LLC, priority 2013, dated 2022).

Sequences and labels used below:
B1: Library 5-1 G12: cAMP sensor; SEQID 8 in Table 1, SEQ ID NO: 9 in Table 3 (protein)
chain: MVAAHAAHSSSSAEWIACLDKRPLERSSEDVDIIFTRLKEVKAFEKFHPNLLHQICLCGYYENLEKGITLFRQGDIGTNWYAVLAGSLDVKVSETSSHQDAVTICTLGIGTAFGESILDNTPRHATIVTRESSELLRIEQKDFKALWEKYRQYMAGLLAPPYGVMETGSNNDRIPDKENTPLIEPHVPLRPANTITKVPSEKILRAGKILRNAILSRAPHMIRDRKYHLKTYRQCCVGTELVDWMMQQTPCVHSRTQAVGMWQVLLEDGVLNHVDQEHHFQDKYLFYRFLDDEHEDAPLPTEEEKKECDEELQDTMLLLSQMGPDAHMRMILRKPPGQRTVDDLEIIYEELLHIKALSHLSTTVKRELAGVLIFESHAKGGTVLFNQGEEGTSWYIILKGSVNVVIYGKGVVCTLHEGDDFGKLALVNDAPRAASIVLREDNCHFLRVDKEDFNRILRDVLENVYIKADKQKNGIKANFKIRHNIEDGGVQLAYHYQQNTPIGDGPVLLPDNHYLSVQSILSKDPNEKRDHMVLLEFVTAAGITLGMDELYKGGTGGSMVSKGEELFTGVVPIQVELDGDVNGHKFSVSGEGEGDATYGKLTLKFICTTGKLPVPWPTLVTTLTYGVQCFSRYPDHMKQHDFFKSAMPEGYIQERTIFFKDDGNYKTRAEVKFEGDTLVNRIELKGIDFKEDGNILGHKLEYNTRANTVRLKEHDQDVLVLEKVPAGNRASNQGNSQPQQKYTVMSGTPEKILEHFLETIRLEATLNEATDSVLNDFIMMHCVFMPNTQLCPALVAHYHAQPSQGTEQEKMDYALNNKRRVIRLVLQWAAMYGDLLQEDDVSMAFLEEFYVSVSDDARMIAALKEQLPELEKIVKQISEDAKAPQKKHKVLLQQFNTGDERAQKRQPIRGSDEVLFKVYCMDPTYTTIRVPVATSVKEVISAVADKLGSGEGLIIVKMSSGGEKVVLKPNDVSVFMTLTINGRLFACPREQFDSLTPLPEQEGPTVGTVGTFELMSSKDLAYQMTIYDWELFNCVHELELIYHTFGRHNFKKTTANLDLFLRRFNEIQFWVVTEICLCSQLSKRVQLLKKFIKIAAHCKEYKNLNSFFAIVMGLSNVAVSRLALTWEKLPSKFKKFYAEFESLMDPSRNHRAYRLTVAKLEPPLIPFMPLLIKDMTFTHEGNKTFIDNLVNFEKMRMIANTARTVRYYRSQPFNPDAAQANKNHQDVRSYVRQLNVIDNQRTLSQMSHRLEPRRP
B2: Library 2-2 E7: cAMP sensor; SEQID 5 in Table 1, SEQ ID NO: 6 in Table 3 (protein)
chain: MGSNNDRIPDKENTPLIEPHVPLRPANTITKVPSEKILRAGKILRNAILSRAPHMIRDRKYHLKTYRQCCVGTELVDWMMQQTPCVHSRTQAVGMWQVLLEDGVLNHVDQEHHFQDKYLFYRFLDDEHEDAPLPTEEEKKECDEELQDTMLLLSQMGPDAHMRMILRKPPGQRTVDDLEIIYEELLHIKALSHLSTTVKRELAGVLIFESHAKGGTVLFNQGEEGTSWYIILKGSVNVVIYGKGVVCTLHEGDDFGKLALVNDAPRAASIVLREDNCHFLRVDKEDFNRILRRANVYIKADKQKNGIKANFKIRHNIEDGGVQLAYHYQQNTPIGDGPVLLPDNHYLSVQSILSKDPNEKRDHMVLLEFVTAAGITLGMDELYKGGTGGSMVSKGEELFTGVVPIQVELDGDVNGHKFSVSGEGEGDATYGKLTLKFICTTGKLPVPWPTLVTTLTYGVQCFSRYPDHMKQHDFFKSAMPEGYIQERTIFFKDDGNYKTRAEVKFEGDTLVNRIELKGIDFKEDGNILGHKLEYN
B3: Lib6-2 C1-T2: Best Downward sensor; SEQID 6 in Table 1, SEQ ID NO: 7 in Table 3 (protein)
chain: MVAAHAAHSSSSAEWIACLDKRPLERSSEDVDIIFTRLKEVKAFEKFHPNLLHQICLCGYYENLEKGITLFRQGDIGTNWYAVLAGSLDVKVSETSSHQDAVTICTLGIGTAFGESILDNTPRHATIVTRESSELLRIEQKDFKALWEKYRQYMAGLLAPPYGVMETGSNNDRIPDKENTPLIEPHVPLRPANTITKVPSEKILRAGKILRNAILSRAPHMIRDRKYHLKTYRQCCVGTELVDWMMQQTPCVHSRTQAVGMWQVLLEDGVLNHVDQEHHFQDKYLFYRFLDDEHEDAPLPTEEEKKECDEELQDTMLLLSQMGPDAHMRMILRKPPGQRTVDDLEIIYEELLHIKALSHLSTTVKRELAGVLIFESHAKGGTVLFNQGEEGTSWYIILKGSVNVVIYGKGVVCTLHEGDDFGKLALVNDAPRAASIVLREDNCHFLRVDKEDFNRILRLENVYIKADKQKNGIKANFKIRHNIEDGGVQLAYHYQQNTPIGDGPVLLPDNHYLSVQSILSKDPNEKRDHMVLLEFVTAAGITLGMDELYKGGTGGSMVSKGEELFTGVVPIQVELDGDVNGHKFSVSGEGEGDATYGKLTLKFICTTGKLPVPWPTLVTTLTYGVQCFSRYPDHMKQHDFFKSAMPEGYIQERTIFFKDDGNYKTRAEVKFEGDTLVNRIELKGIDFKEDGNILGHKLEYNTRKEDFNRILRDVEANTVRLKEHDQDVLVLEKVPAGNRASNQGNSQPQQKYTVMSGTPEKILEHFLETIRLEATLNEATDSVLNDFIMMHCVFMPNTQLCPALVAHYHAQPSQGTEQEKMDYALNNKRRVIRLVLQWAAMYGDLLQEDDVSMAFLEEFYVSVSDDARMIAALKEQLPELEKIVKQISEDAKAPQKKHKVLLQQFNTGDERAQKRQPIRGSDEVLFKVYCMDPTYTTIRVPVATSVKEVISAVADKLGSGEGLIIVKMSSGGEKVVLKPNDVSVFMTLTINGRLFACPREQFDSLTPLPEQEGPTVGTVGTFELMSSKDLAYQMTIYDWELFNCVHELELIYHTFGRHNFKKTTANLDLFLRRFNEIQFWVVTEICLCSQLSKRVQLLKKFIKIAAHCKEYKNLNSFFAIVMGLSNVAVSRLALTWEKLPSKFKKFYAEFESLMDPSRNHRAYRLTVAKLEPPLIPFMPLLIKDMTFTHEGNKTFIDNLVNFEKMRMIANTARTVRYYRSQPFNPDAAQANKNHQDVRSYVRQLNVIDNQRTLSQMSHRLEPRRP
B4: Library 5-1 D2: cAMP sensor; SEQID 7 in Table 1, SEQ ID NO: 8 in Table 3 (protein)
chain: MVAAHAAHSSSSAEWIACLDKRPLERSSEDVDIIFTRLKEVKAFEKFHPNLLHQICLCGYYENLEKGITLFRQGDIGTNWYAVLAGSLDVKVSETSSHQDAVTICTLGIGTAFGESILDNTPRHATIVTRESSELLRIEQKDFKALWEKYRQYMAGLLAPPYGVMETGSNNDRIPDKENTPLIEPHVPLRPANTITKVPSEKILRAGKILRNAILSRAPHMIRDRKYHLKTYRQCCVGTELVDWMMQQTPCVHSRTQAVGMWQVLLEDGVLNHVDQEHHFQDKYLFYRFLDDEHEDAPLPTEEEKKECDEELQDTMLLLSQMGPDAHMRMILRKPPGQRTVDDLEIIYEELLHIKALSHLSTTVKRELAGVLIFESHAKGGTVLFNQGEEGTSWYIILKGSVNVVIYGKGVVCTLHEGDDFGKLALVNDAPRAASIVLREDNCHFLRVDKEDFNRILRDVLENVYIKADKQKNGIKANFKIRHNIEDGGVQLAYHYQQNTPIGDGPVLLPDNHYLSVQSILSKDPNEKRDHMVLLEFVTAAGITLGMDELYKGGTGGSMVSKGEEVSSGGVPIQVELDGDVNGHKFSVSGEGEGDATYGKLTLKFICTTGKLPVPWPTLVTTLTYGVQCFSRYPDHMKQHDFFKSAMPEGYIQERTIFFKDDGNYKTRAEVKFEGDTLVNRIELKGIDFKEDGNILGHKLEYNTRVEANTVRLKEHDQDVLVLEKVPAGNRASNQGNSQPQQKYTVMSGTPEKILEHFLETIRLEATLNEATDSVLNDFIMMHCVFMPNTQLCPALVAHYHAQPSQGTEQEKMDYALNNKRRVIRLVLQWAAMYGDLLQEDDVSMAFLEEFYVSVSDDARMIAALKEQLPELEKIVKQISEDAKAPQKKHKVLLQQFNTGDERAQKRQPIRGSDEVLFKVYCMDPTYTTIRVPVATSVKEVISAVADKLGSGEGLIIVKMSSGGEKVVLKPNDVSVFMTLTINGRLFACPREQFDSLTPLPEQEGPTVGTVGTFELMSSKDLAYQMTIYDWELFNCVHELELIYHTFGRHNFKKTTANLDLFLRRFNEIQFWVVTEICLCSQLSKRVQLLKKFIKIAAHCKEYKNLNSFFAIVMGLSNVAVSRLALTWEKLPSKFKKFYAEFESLMDPSRNHRAYRLTVAKLEPPLIPFMPLLIKDMTFTHEGNKTFIDNLVNFEKMRMIANTARTVRYYRSQPFNPDAAQANKNHQDVRSYVRQLNVIDNQRTLSQMSHRLEPRRP

This assay has as its system cAMP. In words: Fluorescence response of cAMP sensors to isoproterenol in HEK 293 cells co-expressing the beta adrenergic receptor. Type of assay: cell-based, human. As to conditions: in response to isoproternol. The procedure:
To test the functionality of these 28 prototype sensors, each construct was co-expressed with the beta adrenergic receptor, which couples to the Gs signaling pathway when activated by isoproteronol, in HEK 293 cells, and the fluorescence measured as described below. Briefly, 96-well glass-bottom plates were coated with Poly-D-Lysine (Fisher Scientific, Pittsburgh, Pa.) and HEK 293 were seeded and cultured in EMEM (ATCC, Manassas, Va.) supplemented with 10% fetal bovine serum and Penicillin-Streptomycin at 37 […] and 30 ng of beta adrenergic receptor per well, using Lipofectamine 2000 Transfection Reagent (Life Technologies, Grand Island, N.Y.) according to the manufacturer's protocol, and incubated for 24-48 hours at 37° C. in 5% CO2.
Prior to screening transfected cells for fluorescence, he EMEM culture medium was removed and 1×DPBS added to each well. A Zeiss Axiovert S100TV inverted microscope equipped with computer controlled excitation/emission filter wheels, shutters, and a Qimaging Retiga Exi CCD camera (Surrey, BC Canada) was used to image cells at 25e A) supplemented with 10% fetal bovine serum and Penicillin-Streptomycin at 37hn filters were used to resolve the green fluorescence from the cAMP sensors. Cells were analyzed for increases or decreases in fluorescence intensity upon addition of isoproternol, DMSO, forskolin and IBMX. To analyze the image stacks, background fluorescence was defined as a region of the image that contained no cells. The average value of this region was subtracted frame by frame from the measurements of the mean pixel values of the fluorescent cells. Fluorescence intensity data was plotted and analyzed with IGOR (Wavemetrics, Oswego, Oreg.).
For transient expression and screening in an automated fluorescence plate reader, HEK 293T cells were cultured in Corning Co-Star Polystyrene 96-well plates coated with Poly-D-Lysine. HEK293T cells were plated at 35,000 cells/well in 100 μl growth medium per well without antibiotics so that the cells would be 90-95% confluent at the time of transfection (approximately 24 hours later). For each transfection (i.e. one well in a 96-well plate), 160 ng of plasmid DNA (120 ng sensor+40 ng receptor) was diluted in […] and then the mixture was replaced with fresh medium. Prior to scanning a plate on the Biotek Synergy Mx, EMEM culture medium was replaced with 250 μl of 1×DPBS per well. Plates were read at 25° C., using monochromators set to 488/20 nm excitation and 530/20 nm emission to resolve the green fluorescence from the cAMP sensor.
As to B1, the “Relative Change in Fluorescence” value was −39%.
Regarding B2, the “Relative Change in Fluorescence” value is listed as −53%.
Consider B3, for which the “Relative Change in Fluorescence” value is given as −40%.
Take B4: the “Relative Change in Fluorescence” value was 39%.
